84 compounds from ChEMBL document CHEMBL4888484, “Replenishing the malaria drug discovery pipeline: Screening and hit evaluation of the MMV Hit Generation Library 1 (HGL1) against asexual blood stage Plasmodium falciparum ,using a nano luciferase reporter read-out” (2022) can be followed below.

SMILES strings stand for the structures. The whole screen tested about 150,000 compounds, of which about 540 (0.36%) showed an effect of 50% or more. Some of the results follow.

The test system of this assay is Plasmodium falciparum. As to the kind of experiment: Primary screen in NF54 nanoGlo assay, in single point, at 2uM, 72h; a lower Z score goes with more inhibition. Format: functional, Erythrocyte. The following applies: timepoint 72 hour.
Regarding `Cc1ccc(C(=O)C[n+]2ccc3ccccc3c2C)cc1`, the % Inhibition (commonly the relative decrease from the control value, in per cent) is listed as -5% and the Z score was found to be 0.42.
On the same counts, the results for `COC[C@@H]1CCC[C@@H]1NC(=O)c1cccc(S(=O)(=O)N2CCC2)c1` are -12% and 1.27.
For `Cc1cccnc1OC1CCCC1N(C)C` (stereo not drawn) the same measures were -11% and 1.39.
For `CCCC1CCC(c2ccc(C(=O)Nc3cccc(NC(=O)c4ccc(C5CCC(CCC)CC5)cc4)n3)cc2)CC1` (stereo not drawn) the same measures were -1% and 0.18.
As to `COc1ccc2c(c1)CCC[C@@]2(O)CNC(=O)c1ccc(Cl)s1`, the “% Inhibition” value is on record as -11% and the Z score worked out at 1.44.
On the same counts, the results for `CCC(C)(C)C(=O)Nc1ccccc1C(N)=O` are -14% and 2.68.
For the compound `CC(C)c1cc(C(=O)N[C@H]2Cc3ccccc3[C@@H]2N)no1`, the “% Inhibition” value came to 1% and the Z score is on record as -0.14.
As for `CC(C)c1nc(NC(=O)c2ccc3[nH]cnc3c2)n(C)n1`, the “% Inhibition” value is recorded as 1% and the Z score is given as -0.09.
As for `Cc1ccc(-c2noc3nc(C4CC4)cc(C(=O)N4CCCCCC4)c23)cc1`, the “% Inhibition” value was 35% and the Z score is -3.98.
In the case of `Cc1cc(C)n(CC(=O)Nc2cncnc2-n2cccn2)n1`, the “% Inhibition” value is reported as -7% and the Z score turned out to be 0.96.
On to `Cc1nn(C)c(C)c1-c1cc(C(=O)Nc2ccc(F)cc2F)c2c(C)nn(C)c2n1`, for which the “% Inhibition” value is reported as 0% and the Z score was -0.07.
For `C[C@H]1COCCN1CC(=O)Nc1ccc(Br)cn1` the same measures were -6% and 0.53.
For `CCCN(C[C@H]1CCOC1)C(=O)Cc1cccc(Cl)c1` the same measures were -13% and 1.62.
For `Cc1cc(C(=O)NC2(CO)CCC2)nn1C(C)C` the same measures were -7% and 0.87.
Regarding `CCN(CC)S(=O)(=O)NC(=O)C1CC1c1cc(F)ccc1F` (stereo not drawn), the “% Inhibition” value is -2% and the Z score is reported as 0.42.
On the same counts, the results for `C[C@@H](C(N)=O)N1CCC2(CC1)CN(CCc1ccccc1)C(=O)O2` are -19% and 1.82.
Take `CCn1ncc(NS(=O)(=O)c2ccc3ccccc3c2)c1C(=O)N(C)C`: the “% Inhibition” value worked out at 0% and the Z score stood at 0.04.
For the compound `CCN1CCn2cc(C(=O)NCc3nc4ccccc4[nH]3)nc2C1=O`, the “% Inhibition” value is -1% and the Z score came to 0.16.
`c1ccc2c(c1)cnn2C1CCN(CCOC2CCCCO2)C1` (stereo not drawn): the “% Inhibition” value is listed as -14% and the Z score was determined as 1.71.
On the same counts, the results for `O=C(NC[C@H]1Cc2ccccc2O1)c1ccoc1` are -10% and 0.94.
For `CC(C)(C)[C@@H](O)CNc1ccc(C#N)cc1F` the same measures were -15% and 3.02.
For `CCC(C)(C)CNCC1CCOC1c1cnn(C)c1` (stereo not drawn), the “% Inhibition” value was -3% and the Z score came out at 0.43.
For `COC(=O)c1nc(NC(=O)[C@H]2CC(=O)OC2(C)C)sc1-c1ccc(F)cc1` the same measures were -5% and 0.75.
As to `COc1ccc(-c2nc(CN3CCC[C@H](C(N)=O)C3)c(C)o2)c2ccccc12`, the “% Inhibition” value is -10% and the Z score was 1.9.
On the same counts, the results for `COCCOC1CN(C(=O)Nc2ccnc(C)c2)C1` are -8% and 1.29.
For `O=c1[nH]c2cccnc2c(=O)n1CCc1c[nH]c2cc(F)ccc12`, the “% Inhibition” value came out at 0% and the Z score came to 0.01.
With `Cc1cccc(C(=O)N(Cc2cc(NC(=O)C3CCC3)ccc2N(C)C)C(C)C)c1`, the “% Inhibition” value turned out to be 9% and the Z score is recorded as -1.
Regarding `CN(Cc1nnc2ccccn12)c1ccncc1Cl`, the “% Inhibition” value is listed as 27% and the Z score is given as -3.09.
For `CCc1nsc(N2CCO[C@H](c3ccc(OC(F)F)cc3)C2)n1` the same measures were 2% and -0.28.
As to `Cc1nn(-c2ncccn2)c2c1[C@@H](c1ccccc1OCC(C)C)CC(=O)N2`, the “% Inhibition” value is reported as 9% and the Z score is given as -1.51.
In the case of `CCN1CCN(c2c(CN(C(=O)NC3CCCCC3)C(C)C)c(C)nn2-c2cccc(F)c2)CC1`, the “% Inhibition” value is given as -10% and the Z score is on record as 1.04.
On the same counts, the results for `Cc1ncccc1CN1CCN([C@@H](C)C(=O)N2CCOCC2)CC1` are 7% and -0.68.
Consider `Cc1nc(C)c(CNC(=O)[C@@H](c2ccc3c(c2)OCO3)N(C)C)s1`, for which the “% Inhibition” value is given as -14% and the Z score is on record as 2.68.
On the same counts, the results for `Cc1cc(C(=O)N2CCN(c3ccc4cn[nH]c4c3)C(=O)C2)c(C)o1` are -1% and 0.09.
For the compound `Cc1ccc([C@@H]2CCCN2CCc2cccnc2)o1`, the “% Inhibition” value was 7% and the Z score is reported as -0.85.
For `Cc1noc(C)c1[C@@H](C)CC(=O)Nc1ncccc1Cl` the same measures were -7% and 1.12.
For `CN1CCN(c2nc3c(cc2C(N)=O)CCC3)C[C@]12CCNC(=O)CC2` the same measures were -1% and 0.2.
`CCCN(c1ccccc1OC)S(=O)(=O)c1cc2c(cc1C)NC(=O)CO2`: the “% Inhibition” value was -4% and the Z score is on record as 0.66.
For `O=C(NCCNC(=O)c1cc2cccc(F)c2o1)c1ccc(O)cc1` the same measures were -19% and 3.37.
As to `O=C(O)CN(C(=O)c1csc(-c2ccc(Cl)s2)n1)C1CCOCC1`, the “% Inhibition” value was -3% and the Z score was determined as 0.37.
As for `CC(NC(=O)NC1CCCCC1NS(C)(=O)=O)c1nccs1` (stereo not drawn), the “% Inhibition” value is recorded as -9% and the Z score came out at 1.18.
`O=C(COC[C@H]1CCCCO1)NCc1ccc2c(c1)CCCC2`: the “% Inhibition” value is on record as 18% and the Z score is reported as -2.23.
As for `CC(=O)c1ccccc1C(=O)NC[C@H]1CCN(Cc2cccnc2)C1`, the “% Inhibition” value is -6% and the Z score stood at 1.
Regarding `CN(Cc1cncc(F)c1)c1cnn(C)c1`, the “% Inhibition” value is -19% and the Z score was determined as 2.42.
On the same counts, the results for `COCCCNC(=O)C(=O)NCc1ccc(C)cc1` are -9% and 1.47.
Consider `CCS(=O)(=O)N1CC(=O)N(c2ccc(C)c(Cl)c2)[C@](C)(C(=O)NC2CCCCCCC2)C1`, for which the “% Inhibition” value is given as -2% and the Z score came out at 0.22.
For `CC1CCN(Cc2cccn2-c2nnc(N3CCN(Cc4ccccc4)CC3)s2)CC1` the same measures were -6% and 0.61.
Turning to `Cc1ccn2c(C(=O)N[C@H]3CC(=O)N(Cc4cccc(F)c4)C3)nnc2n1`, the “% Inhibition” value is given as -13% and the Z score is reported as 1.23.
`O=C(CCc1c[nH]cn1)N1CC2CCC(C1)O2`: the “% Inhibition” value was -4% and the Z score is on record as 0.52.
For `O=C(CCC1CCN(Cc2ccc3nonc3c2)CC1)Nc1ccc2c(c1)OCCO2` the same measures were -4% and 0.6.
On the same counts, the results for `COc1cccc([C@H]2C[C@@H]2C(=O)Nc2cnc(C(N)=O)s2)c1` are -2% and 0.44.
For `CC(=O)c1ccc(S(=O)(=O)N2CCN(CC(=O)c3c[nH]c(C(=O)N4CCCC4)c3)CC2)cc1` the same measures were -20% and 2.72.
With `CN(C)c1ccnc(CNC(=O)c2ccncc2)n1`, the “% Inhibition” value is 0% and the Z score is -0.02.
In the case of `CC(C)C(=O)N1CCC[C@H](NC(=O)c2nccnc2O)C1`, the “% Inhibition” value is listed as -7% and the Z score came to 0.93.
Take `Cc1cc(C)c(S(=O)(=O)N2CCC(C(=O)NCCc3csc(-c4ccccc4)n3)CC2)cc1C`: the “% Inhibition” value is on record as -4% and the Z score is 0.54.
For `O=C(Cc1noc(-c2cccc3[nH]ncc23)n1)NC1CCCCC1` the same measures were -4% and 0.7.
For `Fc1ccc(OC[C@H]2CCOC2)c(-c2nc3ncccn3n2)c1` the same measures were 12% and -1.63.
For `CC1(C)CN(c2ccc(S(N)(=O)=O)cc2S(C)(=O)=O)CCO1` the same measures were -7% and 0.72.
For `CCOc1ccccc1NC(=O)c1ncccn1`, the “% Inhibition” value is -5% and the Z score came to 1.01.
`CCCn1nc(C)c(Cn2cnc3nccnc3c2=O)c1C`: the “% Inhibition” value came to 1% and the Z score was -0.13.
On the same counts, the results for `O=C1CCc2cc(NC(=O)c3cc(C4CC4)on3)ccc2N1` are -11% and 1.26.
As to `CCCN(CCC)C(=O)Cn1c(=O)n(Cc2ccc(C)c(C)c2)c(=O)c2sccc21`, the “% Inhibition” value is recorded as 26% and the Z score is given as -2.97.
On the same counts, the results for `COc1ccccc1-c1nnc(-c2ccc(OC)c(S(=O)(=O)N3CCOCC3)c2)o1` are -7% and 1.13.
`O=C(c1cc(Cl)sc1Cl)N1CCCS1(=O)=O`: the “% Inhibition” value is reported as -5% and the Z score is given as 0.47.
`CC(C)N1CCNC(=O)[C@@H]1CC(=O)OCc1ccccc1`: the “% Inhibition” value is given as -8% and the Z score is listed as 1.39.
Consider `Cn1cc(C(=O)c2nc(-c3ccccc3Cl)no2)cn1`, for which the “% Inhibition” value stood at 37% and the Z score is given as -5.4.
For the compound `CC(C)(C)C(=O)NCCNc1cncc(-n2cccn2)n1`, the “% Inhibition” value was -3% and the Z score was determined as 0.29.
Regarding `Cc1ccc(C(=O)N[C@H]2NN=C(c3sc(C)nc3C)O2)cc1`, the “% Inhibition” value worked out at 9% and the Z score is reported as -1.25.
On the same counts, the results for `O=c1[nH]c2cc3c(cc2c(-c2ccc(F)cc2)c1Cc1ccccc1)OCCO3` are -1% and 0.17.
On the same counts, the results for `CN(C1CCCC1)S(=O)(=O)N1CCC(Cc2ccn[nH]2)CC1` are -11% and 1.27.
On the same counts, the results for `C[C@H](NCc1nnc2n1CCCC2)c1ccc(-n2cnnn2)cc1` are 4% and -0.46.
Consider `O=C(Nc1cc(C(F)(F)F)ccc1N1CCOCC1)c1nn(-c2ccccc2)c(=O)c2ccccc12`, for which the “% Inhibition” value is -15% and the Z score came to 2.63.
With `Cc1ccccc1[C@H]1CC(=O)Nc2c1c(C)nn2-c1nncc(-c2ccc(Cl)cc2)n1`, the “% Inhibition” value is listed as 25% and the Z score was -1.36.
On the same counts, the results for `CC1CCC(NC(=O)N(C)CCN(C)C2CCN(C)CC2)CC1` (stereo not drawn) are 17% and -2.21.
For `CC(CC(O)c1ccco1)NC(=O)Nc1cccc2c1CCN2C` (stereo not drawn) the same measures were -13% and 1.81.
For `COc1ccc(S(=O)(=O)N2CCN(C(=O)c3cnn4ccccc34)CC2)cc1C` the same measures were -10% and 1.56.
With `Cc1cn2nc(C(=O)Nc3ccccc3)cc2c(N(C)Cc2ccccc2)n1`, the “% Inhibition” value was found to be 1% and the Z score was -0.25.
On the same counts, the results for `Cc1ccc(-c2cc(F)c3c(c2)C[C@H](CN)O3)cc1F` are 0% and -0.06.
For `O=C1CC2(CCC2)C(=O)N1Cc1cc2c(cc1Br)OCCO2` the same measures were -27% and 3.18.
As for `COc1ccc(Oc2nc(N3CCN(C)CC3)nc3c2CN(C(=O)c2ccc(C(F)(F)F)cc2)CC3)cc1`, the “% Inhibition” value is 4% and the Z score was -0.35.
For `CCn1cc(S(=O)(=O)N2CC[C@H](c3noc(COCc4ccccc4)n3)C2)cn1` the same measures were -3% and 0.64.
As for `O=C1NCCCC[C@@H]1n1ccnc1-c1ccccc1Cn1cccn1`, the “% Inhibition” value is reported as 4% and the Z score is on record as -0.52.
Turning to `CC(NC(=O)C(NC(=O)c1ccc(Cl)cc1Cl)C(C)C)c1cc2ccccc2o1` (stereo not drawn), the “% Inhibition” value is listed as -2% and the Z score turned out to be 0.21.
For the compound `Cc1ccc(C(=O)N2CCC(NC(=O)c3nccnc3NC(=O)c3ccccc3F)CC2)cc1`, the “% Inhibition” value was -6% and the Z score is 1.09.
